Results taken from the supplement of paper PMC4604168 (melanoma cell lines).
This is one part of the list. Most values come without repeats; read them as rough.

test system: WM115; test: cell count relative to DMSO control; melanoma cells; higher = more viable cells; conditions: library dose: standard library concentration; 72 h
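Further: cells treated in 1,536-well plates, then fixed and DAPI-stained, with nuclei counted from automated high-throughput microscope images.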

| Structure (SMILES) | cell count |
| --- | --- |
| NC1(c2ccc(-c3nc4ccn5c(=O)[nH]nc5c4cc3-c3ccccc3)cc2)CCC1 + O=C(Nc1cccc(Cl)c1)Nc1ncc(CCNc2ncnc3ccsc23)s1 [SNS314] (first compound 2 µM, partner dose 0.004 µM) | 39.1% |
| CCCS(=O)(=O)Nc1ccc(F)c(C(=O)c2c[nH]c3ncc(Cl)cc23)c1F + Cc1ccc(NC(=O)c2cccc(N(C)C)c2)cc1NC(=O)c1ccc(O)cc1 [ZM336372] (first compound 0.4 µM, partner dose 10 µM) | 83.9% |
| CCCS(=O)(=O)Nc1ccc(F)c(C(=O)c2c[nH]c3ncc(Cl)cc23)c1F + Nc1nc(F)nc2c1ncn2[C@@H]1O[C@H](CO)[C@@H](O)[C@@H]1O [fludarabine] (first compound 0.4 µM, partner dose 1 µM) | 105% |
| CS(=O)(=O)c1ccc(C(=O)Nc2ccc(Cl)c(-c3ccccn3)c2)c(Cl)c1 [vismodegib] + C[C@@H](Oc1cc(-c2cnn(C3CCNCC3)c2)cnc1N)c1c(Cl)ccc(F)c1Cl [Crizotinib] (first compound 5 µM, partner dose 1 µM) | 79.4% |
| C=C(c1ccc(C(=O)O)cc1)c1cc2c(cc1C)C(C)(C)CCC2(C)C [Bexarotene] + CC1(C)NC(=O)N(c2ccc([N+](=O)[O-])c(C(F)(F)F)c2)C1=O [nilutamide] (first compound 10 µM, partner dose 5 µM) | 114% |
| NC1(c2ccc(-c3nc4ccn5c(=O)[nH]nc5c4cc3-c3ccccc3)cc2)CCC1 + C[C@@H]1CCN(C(=O)CC#N)C[C@@H]1N(C)c1ncnc2[nH]ccc12 [CP690550] (first compound 2 µM, partner dose 5 µM) | 68.8% |
